Data on 94 compounds can be found in PubChem BioAssay AID485344 (National Center for Advancing Translational Sciences (NCATS), 2010).

Screen size: about 340,000 compounds; about 6,900 (2%) were called active. No stated cut-off is given here; in the data, active means inhibition above about 30%; inactive means below that, where a call was filed. The entries are a selection whose mix differs from that of the whole data set. Where no call is shown, the source filed none.

This assay concerns the target D(2) dopamine receptor (Homo sapiens) (UniProt P14416). Kind of assay: HTS Assay for Allosteric Antagonists of the Human D2 Dopamine Receptor: Primary Screen for Antagonists. Further: 0% is about no effect. To be noted: HEK293 TREx D2 cells, calcium flux, dopamine EC80; at 10 µM; stronger effect = higher value. The gist of the method: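 HEK293 T-REx D2 cells, tet-induced, calcium dye no-wash. Cpd pintool add, 180 s kinetic, then EC80 DA, 180 s kinetic. Ca flux read.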
UniProt P14416, sequence (P14416 whole entry, looked up): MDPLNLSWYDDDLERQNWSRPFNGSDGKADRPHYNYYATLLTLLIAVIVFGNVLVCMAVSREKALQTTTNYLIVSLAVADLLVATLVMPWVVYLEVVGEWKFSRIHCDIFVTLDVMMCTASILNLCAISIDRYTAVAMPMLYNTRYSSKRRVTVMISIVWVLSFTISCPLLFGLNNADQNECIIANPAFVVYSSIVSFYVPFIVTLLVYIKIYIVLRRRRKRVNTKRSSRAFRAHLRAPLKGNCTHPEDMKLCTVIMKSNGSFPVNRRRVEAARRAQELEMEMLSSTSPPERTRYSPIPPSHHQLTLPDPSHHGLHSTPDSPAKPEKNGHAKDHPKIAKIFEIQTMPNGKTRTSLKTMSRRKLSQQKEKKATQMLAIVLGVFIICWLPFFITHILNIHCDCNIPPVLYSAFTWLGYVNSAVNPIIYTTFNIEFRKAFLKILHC
(A change in cytosolic calcium serves as a functional read-out for many receptors and channels.)
For orientation: inhibition means the drop in the measured response relative to a control, in per cent. On to `CCc1ccc(OCC(=O)Nc2ccc3c(c2)c2ccccc2n3CC)c(Br)c1`, for which the inhibition is 12.6%.

Take `CCOc1ccc(NC(=O)C(C)n2c(=O)cc(C)c3c(C)nn(-c4ccccc4)c32)cc1` (centres undefined): the inhibition worked out at 11.4%.

Regarding `CCc1ccc(N(CC)C(=O)Cn2cnc3sc(C)c(S(=O)(=O)N4CCN(c5ncccn5)CC4)c3c2=O)cc1`, the inhibition was -10.2%.

Turning to `Cc1ccc(C)c(OCC(=O)N(Cc2nnc(-c3ccccc3Cl)o2)C2CC2)c1`, the inhibition is active: 33.4%.

Regarding `CCCOc1ccccc1C1C(C(=O)Nc2ccccc2)=C(C)Nc2nnnn21` (centres undefined), the inhibition is 26.1%.

Consider `CCCC1=Nc2cc(C(=O)NCCOC)ccc2Sc2ccccc21`, for which the inhibition was -5.24%.

For `Cc1cccc(S(=O)(=O)c2cn(C)c3cc(N4CCC(C)CC4)c(F)cc3c2=O)c1`, the inhibition turned out to be 3.16%.

Turning to `C#CCNC(=O)/C=C/c1ccc(C)cc1`, the inhibition is active: 39.7%.

Turning to `CC(=O)Nc1ccc(NC(=O)c2cc(-c3ccc4c(c3)OCCO4)on2)cc1`, the inhibition is -11%.

With `CCC(=O)N1c2ccc(S(=O)(=O)CCC(=O)NCc3cccc(OC)c3)cc2CC1C` (centres undefined), the inhibition was 4.14%.

`COc1ccccc1CNC(=O)Cn1c(=O)nc(-c2ccccc2)c2ccccc21`: the inhibition is 3.76%.

Take `COc1ccc(-c2nc(CN3CCC(c4ccccc4)CC3)c(C)o2)cc1OC`: the inhibition was active: 44.3%.

`CCCSc1nnc2c(n1)OC(c1cccs1)Nc1ccc(Br)cc1-2` (centres undefined): the inhibition was 4.57%.

On to `COC(=O)c1ccc(NC(=O)CN(Cc2ccccc2)S(=O)(=O)c2ccc(Cl)cc2)cc1`, for which the inhibition was -24.2%.

`Oc1c(C(c2ccccc2F)N2CCCC2)sc2nc(-c3ccco3)nn12` (centres undefined): the inhibition was -23.8%.

In the case of `Cc1c(Cl)cccc1NC(=O)Nc1ccc2snnc2c1`, the inhibition is -6.12%.

In the case of `O=C(NCCc1ccccc1)c1ccc(CS(=O)(=O)c2ccc(Cl)cc2)o1`, the inhibition was found to be 4.27%.

As for `CCN(C1CCCCC1)S(=O)(=O)c1ccc(S(=O)(=O)NCCc2ccncc2)cc1`, the inhibition is active: 32.2%.

As to `COC(=O)c1ccc2c(=O)n(CCCCCC(=O)N3CCN(c4ccc(Cl)cc4)CC3)c(=O)[nH]c2c1`, the inhibition was -7.89%.

With `Cc1ccc(CCNC(=O)CCn2nc(-c3ccc(C)cc3)ccc2=O)cc1`, the inhibition was -5.71%.

For `CCN(CC)CCSc1nnc2c3cc(F)ccc3n(CC)c2n1`, the inhibition was -0.733%.

As for `COc1cccc(C(=O)n2nc(-c3cccnc3)nc2NCc2ccc(F)cc2)c1`, the inhibition amounted to 10.8%.

For the compound `COC(=O)c1ccc(CNC(=O)c2ccc(S(=O)(=O)N(C)c3ccccc3OC)cc2)cc1`, the inhibition is active: 48.6%.

As to `Cc1ccc(NC(c2nnc(-c3ccccc3)o2)c2ccccc2F)c(Cl)c1` (centres undefined), the inhibition was 4.76%.

For the compound `COCC(=O)Nc1c(C(=O)Nc2ccc(C)cc2)oc2ccccc12`, the inhibition was found to be 16.2%.

On to `CCOc1ccc(S(=O)(=O)N(CC(=O)Nc2ccc3c(c2)OCO3)c2ccc(C)cc2)cc1`, for which the inhibition was determined as 4.2%.

As for `Cc1ccc2oc(-c3ccc(C)c(NC(=O)c4ccc(-c5ccccc5[N+](=O)[O-])o4)c3)nc2c1`, the inhibition is -1.3%.

Take `CCn1cc(S(=O)(=O)c2ccc(Cl)cc2)c(=O)c2cc(F)c(N3CCOCC3)cc21`: the inhibition is 12.9%.

For the compound `Cc1ccc(CNC(=O)CN2C(=O)CCc3cc(S(=O)(=O)N4CCCCC4)ccc32)cc1`, the inhibition was -4.09%.

For `CCN(CC)S(=O)(=O)c1ccc(N2CCCCS2(=O)=O)cc1`, the inhibition is 17.5%.

On to `Cc1ccc2onc(CNC(=O)N3CCN(c4cccc(C(F)(F)F)c4)CC3)c2c1`, for which the inhibition is -14.5%.

In the case of `CCOC(=O)c1ccc(-c2ccc(/C=C(\C#N)C(=O)Nc3ccc(C)cc3)o2)cc1`, the inhibition is -3.29%.

`COc1cc(CN(C(=O)c2ccc(Cl)cc2)C2CCS(=O)(=O)C2)cc(OC)c1OC` (centres undefined): the inhibition is -12.8%.

For the compound `Cc1ccc(S(=O)(=O)C(CNC(=O)C(=O)NCc2ccc(Cl)cc2)c2ccco2)cc1` (centres undefined), the inhibition is 1.95%.

On to `CCOc1ccc(-n2c(=O)c3c(C)c(C(=O)N(C)C)sc3n(Cc3cc(C)ccc3C)c2=O)cc1`, for which the inhibition was -1.12%.

On to `COc1ccc(C(CNC(=O)c2ccc(-c3ccccc3Cl)o2)N2CCOCC2)cc1` (centres undefined), for which the inhibition is active: 66.4%.

Consider `C/C=C(/C)C(=O)Nc1cccc(C2=NOC3(C2)C[C@@H](C(N)=O)N(C(=O)CC(c2ccccc2)c2ccccc2)C3)c1` (some centres undefined), for which the inhibition was active: 32%.

In the case of `CCOc1ccc(-c2nc3cc(NC(=O)COc4cccc(C)c4)ccc3o2)cc1`, the inhibition amounted to 6.65%.

With `O=c1c2sc3ccccc3c2n(Cc2ccc(F)cc2Cl)c(=O)n1Cc1ccccc1`, the inhibition was 1.46%.

On to `CCOc1ccccc1CNC(=O)c1oc2ccc3c(c2c1C)C(=O)CC(C)(C)O3`, for which the inhibition is -3.08%.

Regarding `CCN(CC)S(=O)(=O)c1cc(NC(=O)C(C)N2CCN(Cc3ccc4c(c3)OCO4)CC2)ccc1C` (centres undefined), the inhibition is active: 84.3%.

Consider `Cc1ccc(Cl)cc1Nc1nn2c(=O)c3ccc(C(=O)NC(C)c4ccccc4)cc3nc2s1` (centres undefined), for which the inhibition amounted to 10%.

`Cc1cccc(CN2CCN(C(c3ccccc3)c3ccc(Cl)cc3)CC2)c1` (centres undefined): the inhibition is active: 30.9%.

For the compound `Cc1ccc(Cl)cc1N1CCN(C(=O)CCS(=O)(=O)c2ccc3c(c2)oc(=O)n3C)CC1`, the inhibition turned out to be 8.33%.

In the case of `Cn1nc(C(=O)NCc2ccccc2)c2c1-c1ccccc1S(=O)(=O)C2`, the inhibition was 17.9%.

For the compound `Nc1ccc(C(=O)N/N=C\C=C\c2cccc([N+](=O)[O-])c2)cc1`, the inhibition is active: 48%.

Consider `CCC(C(=O)NC1CCCCC1)n1c(SCc2cccc(F)c2)nc2ccncc21` (centres undefined), for which the inhibition stood at 23.7%.

As to `Cc1ccc(S(=O)(=O)C(CNS(=O)(=O)c2ccc(F)c(C(F)(F)F)c2)c2ccco2)cc1` (centres undefined), the inhibition is -20.2%.

As to `CCCCCCCC(=O)Oc1ccc(C(=O)Nc2cc(C)on2)cc1`, the inhibition was active: 37%.

With `CC(CNC(=O)C1CCN(C(=O)c2cc3sccc3n2C)CC1)c1ccccc1` (centres undefined), the inhibition was -0.946%.

In the case of `CCOc1ccc(CNCc2c(C(=O)O)n(Cc3ccccc3C)c3cc(OC)ccc23)cc1OC`, the inhibition was determined as 26.4%.

`Nc1nc2ccc(C(=O)N3CCCCC3)cc2s1`: the inhibition is active: 51.2%.

Take `CCOc1ccccc1Nc1sc(C(=O)c2ccc(Cl)cc2)c(N)c1S(=O)(=O)c1ccccc1`: the inhibition is -17.6%.

Turning to `O=C(CSc1ncc2c(n1)-c1ccccc1N(Cc1ccc(Cl)cc1)S2(=O)=O)c1ccccc1`, the inhibition is 2.49%.

As for `Cc1nnc(NC(=O)CSc2nc(C3CCCCC3)nc3ccccc23)s1`, the inhibition was active: 35.4%.

Consider `CCN(Cc1ccccc1)C(=O)Cn1ncc2c(=O)oc3ccc(C)cc3c21`, for which the inhibition is -19.4%.

As to `Cc1cccc(N2CCN(C(=O)c3ccc4c(c3)N(Cc3cccc(Cl)c3)C(=O)c3ccccc3S4(=O)=O)CC2)c1C`, the inhibition stood at 9.82%.

With `CCOc1ccc(NC(=O)CCc2nnc3n(C)c(=O)c4sccc4n23)cc1`, the inhibition is 11.3%.

For the compound `CCOC(=O)C1CCN(c2ncnc3c2c(-c2ccccc2)cn3-c2ccc(Cl)cc2)CC1`, the inhibition was determined as 23%.

`CCOc1ccccc1CNS(=O)(=O)c1cc(-c2onc(C)c2C)ccc1OC`: the inhibition was -4.65%.

With `CCOC(=O)c1c(C)[nH]c(C)c1S(=O)(=O)NCC(=O)NCc1ccccc1C`, the inhibition is 13.1%.

For the compound `CCC(=O)N1c2ccccc2CC1C(=O)N1CCN(c2ccccc2F)CC1` (centres undefined), the inhibition came out at 9.51%.

For `Clc1ccccc1CSc1nc(NCCc2ccccc2)c2ccccc2n1`, the inhibition amounted to 5.49%.

With `CCOc1ccccc1Oc1nc(C)nc2c1oc1ccccc12`, the inhibition stood at 10.7%.

Take `N#Cc1c(C(F)(F)F)cc(-c2cccs2)nc1SCc1ccccc1F`: the inhibition was -3.96%.

Turning to `COc1ccc(OCCn2nnc3sc4c(c3c2=O)CCCC4)cc1`, the inhibition was -2.81%.

Regarding `CCOc1ccc(-n2nc(CO)c(C(=O)NCC(C)O)n2)cc1` (centres undefined), the inhibition was 16.2%.

In the case of `COC(=O)c1cc2sccc2n1CC(=O)Nc1cc(Cl)ccc1OC`, the inhibition was 16.4%.

`Cc1cccc(C(=O)NNc2ncnc3c2cnn3-c2ccc(C)c(Cl)c2)c1`: the inhibition is 18.9%.

As to `CC(CNC(=O)CCCn1c(=O)c2cccn2c2ccc(F)cc21)c1ccccc1` (centres undefined), the inhibition is 6.11%.

Consider `Cc1ccc(-c2nc(CS(=O)CC(=O)NCCc3ccc(Cl)cc3)c(C)o2)cc1` (centres undefined), for which the inhibition is -26.8%.

In the case of `COc1cc(NC(=O)C2Cc3ccccc3N2C(=O)c2ccccc2)cc(OC)c1` (centres undefined), the inhibition was -0.7%.

Consider `Nc1c(C(=O)NCc2ccc(Cl)cc2)sc2nc(-c3ccc(F)cc3)ccc12`, for which the inhibition is -2.13%.

For the compound `CCc1ccc(Nc2sc(C(=O)c3ccc(F)cc3)c(N)c2S(=O)(=O)c2ccccc2)cc1`, the inhibition is 4.72%.

As for `COc1ccc(OC)c(NC(=O)CCNS(=O)(=O)c2ccc3c(c2)oc(=O)n3C)c1`, the inhibition is -2.49%.

Consider `CCc1ccc(S(=O)(=O)c2cn(CC)c3cc(N4CCCCC4)c(F)cc3c2=O)cc1`, for which the inhibition amounted to 15.8%.

Consider `COc1ccc2nc(NC(=O)c3cc(=O)c4cc(C)cc(C)c4o3)sc2c1`, for which the inhibition came out at 7.43%.

Take `COc1cc(OC)c(NC(=O)C2CCN(S(=O)(=O)c3ccc4c(c3)oc(=O)n4C)CC2)cc1Cl`: the inhibition worked out at 0.491%.

For `Cc1ccc(CNC(=O)CN2CCN(Cc3ccc(F)cc3Cl)C2=O)cc1`, the inhibition was -25.5%.

As to `O=C(CSc1nccn1Cc1ccco1)Nc1cc(C(F)(F)F)ccc1Cl`, the inhibition was 11.9%.

Regarding `O=C(c1ccc2c(Cl)c3c(nc2c1)CCCC3)N1CCN(c2cccc(C(F)(F)F)c2)CC1`, the inhibition turned out to be 20.4%.

With `CCN(c1ccccc1)c1nnc(NC(=O)Nc2ccc(Br)c(C)c2)s1`, the inhibition turned out to be 12.9%.

With `CSc1nnc2c3c4c(sc3nc(-n3nc(C)cc3C)n12)COC(C)(C)C4`, the inhibition was active: 48.4%.

Consider `O=C(CN1C(=O)COc2ccc(S(=O)(=O)N3CCCCCC3)cc21)N1CCN(c2ccccc2F)CC1`, for which the inhibition came to 21.5%.

Regarding `CCOc1ccc(CNC(=O)CCS(=O)(=O)c2cc3c4c(c2)CCN4C(=O)CC3)cc1OC`, the inhibition was -1.51%.

Regarding `CCOc1ccccc1C(=O)NCc1nc2cccnc2n1Cc1ccc(C)cc1`, the inhibition was 7.16%.

With `CCOc1cc(CNC(=O)c2ccc3c(c2)N(C)C(=O)C2CCCCN32)ccc1OC` (centres undefined), the inhibition came out at 4.42%.

For the compound `O=C(CNC(=O)c1ccc(F)cc1)OCc1cc(=O)n2nc(C3CCCCC3)sc2n1`, the inhibition came to 8.19%.

`COc1ccc(OC)c(NC(=O)CN2CCCN(Cc3ccccc3Cl)S2(=O)=O)c1`: the inhibition was -5.28%.

For `CCN(CC)CCCn1c(=S)[nH]c2ncccc2c1=O`, the inhibition is active: 47.8%.

As to `Cc1ccc(N2CCN(C(=O)c3cnn(-c4ccc(C)c(C)c4)c3C3CCNCC3)CC2)c(C)c1`, the inhibition is -2.74%.

As to `Cc1ccc(-n2ncc3c(NC4CCCCC4)ncnc32)cc1Cl`, the inhibition is -2.02%.

For `COc1ccc(CNC(=O)CCCn2nc(C)c3c(C)n(-c4ccc(C)cc4)nc3c2=O)cc1OC`, the inhibition was found to be 7.97%.

With `Cc1cccc(N2CCN(C(=O)c3noc4c3CCCCC4)CC2)c1C`, the inhibition worked out at 4.75%.
